From publication PMC6262623 come the findings set out here.

Chains of the proteins cited; added tags and fusions are not shown.
UniProt Q8BPU7: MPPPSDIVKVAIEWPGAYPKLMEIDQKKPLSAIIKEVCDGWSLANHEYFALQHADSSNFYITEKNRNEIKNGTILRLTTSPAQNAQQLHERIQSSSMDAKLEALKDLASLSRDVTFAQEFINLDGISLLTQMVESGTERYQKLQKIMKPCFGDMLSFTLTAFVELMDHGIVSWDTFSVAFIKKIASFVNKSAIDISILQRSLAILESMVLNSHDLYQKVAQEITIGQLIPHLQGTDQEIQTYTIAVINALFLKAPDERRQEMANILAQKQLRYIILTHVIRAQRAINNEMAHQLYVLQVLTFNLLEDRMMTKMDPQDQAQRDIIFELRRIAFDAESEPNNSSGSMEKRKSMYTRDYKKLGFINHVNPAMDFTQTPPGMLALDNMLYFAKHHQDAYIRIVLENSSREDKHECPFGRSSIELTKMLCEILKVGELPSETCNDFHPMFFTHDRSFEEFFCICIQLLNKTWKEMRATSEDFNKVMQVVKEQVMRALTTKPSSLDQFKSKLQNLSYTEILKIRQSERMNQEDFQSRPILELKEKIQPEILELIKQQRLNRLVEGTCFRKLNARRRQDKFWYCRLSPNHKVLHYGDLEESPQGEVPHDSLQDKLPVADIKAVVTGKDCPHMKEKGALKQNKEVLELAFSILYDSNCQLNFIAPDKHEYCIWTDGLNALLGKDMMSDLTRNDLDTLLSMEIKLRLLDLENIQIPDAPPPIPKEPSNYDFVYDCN

Assay [1] has as its target T1, Ephexin4 amino acids 280–628 (murine) (UniProt Q3U5C8).
T1 sequence: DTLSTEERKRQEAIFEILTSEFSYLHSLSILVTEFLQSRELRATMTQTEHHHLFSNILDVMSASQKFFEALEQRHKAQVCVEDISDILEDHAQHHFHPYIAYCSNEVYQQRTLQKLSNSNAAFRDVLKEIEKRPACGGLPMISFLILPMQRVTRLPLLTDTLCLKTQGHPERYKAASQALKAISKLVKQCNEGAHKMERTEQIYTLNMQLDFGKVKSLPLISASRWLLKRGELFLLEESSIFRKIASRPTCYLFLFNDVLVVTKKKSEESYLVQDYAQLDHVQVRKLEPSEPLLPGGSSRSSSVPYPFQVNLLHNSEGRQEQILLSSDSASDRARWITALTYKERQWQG
In words: co-IP; 293T cells co-transfected, lysed after 2 days (50 mM Tris pH 7.6, 150 mM NaCl, 1% Triton X-100); lysates incubated with FLAG-conjugated agarose beads 2 h at 4 °C, five washes, immunoblotting.

Assay [2] concerns the target T2, Ephexin4 amino acids 280–628 with the E295A mutation (murine) (UniProt Q3U5C8).
T2 sequence: T1 sequence with E16A
The assay is described as above.

The target of assay [3] is FLAG-tagged wild-type Ephexin4 (murine) (UniProt Q3U5C8). The assay is described as above.
Assay [4] deals with FLAG-tagged Ephexin4^E295A (murine) (UniProt Q3U5C8). The description is as above.
The target in assay [5] is T3, FLAG-tagged Ephexin4^P271A (murine) (UniProt Q3U5C8).
T3 sequence: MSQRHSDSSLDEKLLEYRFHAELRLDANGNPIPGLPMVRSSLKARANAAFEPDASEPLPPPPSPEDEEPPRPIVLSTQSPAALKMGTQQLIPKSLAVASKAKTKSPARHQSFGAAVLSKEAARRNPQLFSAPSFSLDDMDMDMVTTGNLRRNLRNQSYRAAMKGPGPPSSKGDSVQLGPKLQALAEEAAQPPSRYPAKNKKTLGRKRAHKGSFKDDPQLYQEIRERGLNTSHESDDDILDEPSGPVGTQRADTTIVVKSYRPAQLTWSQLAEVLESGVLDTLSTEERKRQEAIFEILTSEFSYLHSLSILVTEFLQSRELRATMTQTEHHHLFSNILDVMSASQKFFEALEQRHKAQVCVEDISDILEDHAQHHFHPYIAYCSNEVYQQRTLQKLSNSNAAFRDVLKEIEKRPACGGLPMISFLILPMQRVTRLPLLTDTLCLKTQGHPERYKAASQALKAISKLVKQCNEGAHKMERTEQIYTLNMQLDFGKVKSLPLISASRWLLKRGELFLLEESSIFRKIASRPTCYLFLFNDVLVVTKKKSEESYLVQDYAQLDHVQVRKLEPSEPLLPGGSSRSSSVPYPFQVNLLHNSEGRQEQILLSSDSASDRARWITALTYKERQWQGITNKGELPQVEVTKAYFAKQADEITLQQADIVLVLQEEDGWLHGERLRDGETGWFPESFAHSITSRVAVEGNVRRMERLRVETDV
Described as above.

For assay [6], the target named is full-length Elmo1 (UniProt Q8BPU7). The description is as above.
In assay [7] the target is Ephexin4^E295A (tag not told for the experiment) (murine) (UniProt Q3U5C8). As to the kind of experiment: cross-linking; 293T cells transfected, resuspended in PBS pH 8.0, 0.1 mM DSS (or DMSO) 30 min at room temperature, stopped with 20 mM Tris, lysed, immunoblotting.
The target of assay [8] is wild-type Ephexin4 (tag not told for the experiment) (murine) (UniProt Q3U5C8). The description is as above.

Changes are numbered by the printed parent chain. Names and notes keep the numbering of the source. No constants are given. Whether binding was seen depends on the method and setting. Binding seen in cells or lysates may run through a third protein. Some results given as binding are weak or reduced against the parent protein; the word gives no strength. For some assays here: Sequences can lack the tags named with a protein.

B1: SH3 domain of Ephexin4 (domain or fragment, UniProt Q3U5C8 633-693)
chain: GELPQVEVTKAYFAKQADEITLQQADIVLVLQEEDGWLHGERLRDGETGWFPESFAHSITS
In the case of B1, the results for the binding entry in assay [1] and in assay [2] were “binds” and “no binding”, respectively.

B2: GFP-tagged wild-type Ephexin4 (protein, UniProt Q3U5C8 1-713)
chain: T3 sequence with A271P
For the molecule B2, the figures for the binding entry in assay [3], in assay [4] and in assay [5] were “binds”, “no binding” and “binds”, respectively.

B3: Ephexin4^E295A (tag not told for the experiment) (protein, UniProt Q3U5C8 1-713)
chain: T3 sequence with A271P, E295A
For the molecule B3, the binding entry in assay [6] and in assay [7] was “no binding” in each case.

B4: wild-type Ephexin4 (tag not told for the experiment) (protein, UniProt Q3U5C8 1-713)
chain: T3 sequence with A271P
For B4, the binding result in assay [6] and in assay [8] was “binds” each time.

B5: GFP-tagged Ephexin4^E295A (protein, UniProt Q3U5C8 1-713)
chain: T3 sequence with A271P, E295A
For the molecule B5, the binding result in assay [4] is “no binding”.

B6: GFP-tagged Ephexin4^P271A (protein, UniProt Q3U5C8 1-713)
chain: T3 sequence
As to B6, the binding entry in assay [5] is given as “binds”.
